# Measurements: the RNAGym collection of RNA variant scans (doi:10.7554/elife.90254)
# Read counts are not given, so values of variants with three or more changes are uncertain.
# B1: OR4K15 (parent)
# chain: GUUAACGGUCAUAGGCCAUGGAAACUAGGAGCACCAUUUCGCUGCCAGUGAAGAAAUGAACAAAGAAAAUCUGGGCCAGGCAGGCAUCAAAAGAAAUAGUCUUGCGCUCAACCAGAAAGUCUGUAAUCAUUUUAAGGGUA
# Variants of: B1
# Test: self-cleavage, relative activity (ratio to wild type); higher = more cleavage; in vitro, sequencing; the parent is a self-cleaving ribozyme
row,Variant,self-cleavage
1,A56G U70C U102C A116U,0.42
2,A11G A89G U131C,0.69
3,A64G U102C U122C,1.74
4,U12C G15A G99U,0.26
5,U2C G83U U122G U130C,0.35
6,A30G A94G U120C,1.04
7,A33G U49C A78G,0.04
8,U39C A52U A63G C81U,0.42
9,A62G A78U A91G,0.1
10,A62C A95G A111G A125G,0
11,A11G A62G U124A U131C,0.12
12,G29U A54G A68G C105U,0.16
13,A18G U49C A96G U100C,1.58
14,A86G A96G A98G A110G G137A,0.04
15,A64G A89G A125G,0.36
16,A36G G58A A90G A96G U102C A117G,1.05
17,C32U A36G U72C,0.29
18,A78U A82U A89G,0.08
19,U9C U19C A54G U127C,0.56
20,A24U A56G A92G A114U,0.02
21,G8A G15A A86G U120C,0.64
22,A24G U38C A63C,0.66
23,A47U A55G A60G,0.47
24,U19C U70A U87G,0.31

row,Variant,self-cleavage
1,C32U A60U A96G,1.63
2,A56C A86G U103C U108C,0.01
3,A60G U87C A95G U102C,0.92
4,C42U A64G A78G U124A,0.07
5,A30G A52G A118G U132C,1.12
6,A63U U124C A125G,0.92
7,U2C A36G A78G U102A,0.1
8,A33C A67G A86G U133A,2.21
9,A23G U38C A54U,1.32
10,A22G A30U A62G A67G G80U A94G A117G,0.1
11,A78G A90G A118G,0.03
12,A47C U102C A111G,0.01
13,G14A A36G U38C A66U C85U,0.79
14,A23C U49C A63G A69G A117U,0.32
15,A60G A114U A118G,0.07
16,C10U A11G A55G A86G A91G U122C U131C,0.05
17,A52G A86C A91G U130C A140G,0.56
18,A11U A89G U102C A111G A114U,0.02
19,A11G U49C A125G U132C,0.89
20,A36U A47G A56G A64U A129G,0.21
21,A5G U37C A82C A116G,0.04
22,U9A U38C A64G U133C,1.78
23,A30G A55G U130A,0.5
24,U9C U127A G138U,1.84

row,Variant,self-cleavage
1,A91G U103C A110G U132C,0.04
2,A11G U39C A62G A95G,1.72
3,A18G A22G U39C U103C A135U,1.26
4,A78U A86G A91G,0.02
5,A64U A92G U120C,0.59
6,A5G C42U A82G U102A G104A,0.11
7,U2C A56G A69G,1.39
8,U43A U49C U130C,0.83
9,U9A U43G A89G U122A U127A,0.95
10,A55G A114U A117G,0.04
11,A4G C85G A135G,1.34
12,A47G A51C U57A,0.76
13,A11G A18G A36G,0.96
14,U57A U70C U108A,0.02
15,A18G U43G U57A A90G,1.11
16,U2C A23G G137A,1.79
17,U39C A47U A52U U120A,0.37
18,A5U A55G A78U U103A,0.13
19,A5G U72C A82U,0.37
20,A11G A126U U132A,0.62
21,U9C U108G A125G,0.01
22,U37C U57C A63G A90G,1.07
23,A78U A91U A114C,0.02
24,A22G G50A U132C,1.92

row,Variant,self-cleavage
1,A23G A52G A78U U87A,0.55
2,A64G U103C U108C U127C A129G,0
3,A24U A27G A82G A91G,0.38
4,A27U U39C A59G A63G A64U U139A,0.98
5,A5U G31A A62G U108C,0.05
6,A55G U103A A110U,0.34
7,A5G A55G A68G U127C,0.61
8,U37C A82C U130C,0.11
9,A22G A89C U122C,0.88
10,A23G U38A U57A,1.2
11,A54G A60G U108C,0.03
12,A5G A33G A63G A78U A114U A118G A140G,0
13,A13G A68G A91C,0.94
14,U103C A110U A111G U132C,0.01
15,A23G A47G A60G A82U A111G,0.04
16,U9A U19A U37C U108C A116G U127C,0.01
17,U2C A27G A67G U122A A126G,0.18
18,A18U G48A A59G A68G,0.93
19,U37C U108A U130C,0
20,A5G A22G A64G,1.22
21,A47G A69G A110G,0.11
22,A5G A24G A52U U87C,1.05
23,U43C A64U U133C,1.56
24,A5G A36U G53U A64G A90G,1.41

row,Variant,self-cleavage
1,A56U A60G A82G,0.54
2,C46A A114C A118G,0.04
3,A24G A69G U70A,1.12
4,A18G U49G A111G A126G,0.05
5,A64G A82C A125G,0.07
6,G14U U72C U108C,0.01
7,U19C C42A U49C A134G,0.21
8,A56G A90G C107U A110U,0
9,G7A U87C C105U,0.1
10,A36U U38G A60G A64U U70C U87C,0.08
11,A30G U39C U131A,0.93
12,U43A A47G A67G A86G,1.36
13,U39C C105U U124C,0.11
14,A11U A56G A69G A135G,0.62
15,A60U A98G U100C,1.53
16,U12A U57A A82C U103C,0.1
17,G28A A56G U87C,1.78
18,A63G A98G A117G A126G,0.22
19,G48A A54U G83U A91G,0.06
20,U19A A63G A68U,1.89
21,A11G A23U A89G U124C,0.85
22,U2C A51G A67G A86G A95G A96G U97C U131A,0.92
23,A36G A62U A92G,2.06
24,U9C A64G U70A,0.79

row,Variant,self-cleavage
1,U38G A78U C85U A114C,0.02
2,U43A A56G A66G G75A U108C A114U,0.02
3,U12C A36U A60G A68U,0.86
4,A5G U49C A52G,0.47
5,A22C A64U A82U,0.26
6,U19C U39G A52G A68G,0.61
7,G7U U26C U39A U70C,1.08
8,A69G A111G U122C,0.01
9,A33U U103A A111G,0.04
10,A5G U38C U70C,0.75
11,A33U A52G A91G A114G A117U,0.14
12,U2C U38C A54G A59U A60G,0.76
13,U12C A33G A69G,1.35
14,A60G C112U U127C,0.02
15,U43C A47U G58A U70A U100C,0.73
16,U19C U49A A116G U130C,0.24
17,A11G A27G U87C A134G,1.14
18,U26C A55G A89U U120C,0.57
19,A27C A55G A69G U97C A134G,0.73
20,U26A A51G A55G A91G A118G A126U,0.33
21,U2C A36U U38A A55G U87G,0.32
22,A59U A62G A114G,0.39
23,A4G A11G U19C A66G U122A,0.63
24,A24G A67G U127A,2.52

row,Variant,self-cleavage
1,A23G C85G U122C,0.64
2,C40U A52G A118U,0.93
3,A30G A64G A117G A135G,1.11
4,C35U A95G U100A U102C,1.88
5,A36G U70C U130C,0.14
6,U87C A96U A129G U131C U139C,1
7,A52U A94G G106U U108C,0.01
8,A55G A91U A118G,0.93
9,A47G U49G A78U,0.15
10,A24U A36G C76A A140G,0.11
11,U2C A24G A94G,1.7
12,A23G A59G A92U A125G,0.49
13,G50A A52G A110C A114G A116G,0.02
14,G7A A13U U122A U127C,0.68
15,U19A U49C A64G A67G,1
16,C10U A36U A91U U108C U124C U132A,0.01
17,A23G A24C A47U,0.88
18,U72A A86U A117G,0.3
19,U38G A91G U130C,0.19
20,U39C A51G A82U,0.24
21,A36G U37C A55G A92G,1.78
22,A24G C81U A95G,1.2
23,A18G A56G A111G,0.04
